Results reported in the antibiotic and cytotoxicity screens of Wong et al. (2023).
Some of the results follow.

Experiments:
[1] = system: HSkMC (human skeletal muscle cells); assay: cytotoxicity call (relative viability < 0.9); settings: 10 µM
[2] = system: HepG2; assay: cytotoxicity call (relative viability < 0.9); settings: 10 µM
[3] = system: S. aureus RN4220; assay: growth inhibition call (relative growth <= 0.2); settings: 50 µM

Row | Structure (SMILES) | cytotoxicity call [1] | cytotoxicity call [2] | growth inhibition call [3]
1 | Cc1ccc(C(=O)c2ccc(Oc3ccccc3)cc2)cc1 | inactive | inactive | inactive
2 | COc1ccc(CN(C)C[C@@H]2OCCCC[C@@H](C)Oc3ccc(NC(=O)Nc4cccc5ccccc45)cc3C(=O)N([C@@H](C)CO)C[C@H]2C)cc1 | active | active | inactive
3 | C[C@H]1CN([C@@H](C)CO)C(=O)c2cccc(NC(=O)C3CCOCC3)c2O[C@@H]1CN(C)Cc1ccc(C(=O)O)cc1 | inactive | inactive | inactive
4 | COCC#Cc1cnc2c(c1)C(=O)N([C@H](C)CO)C[C@H](C)[C@H](CN(C)C(=O)CCN1CCCCC1)O2 | inactive | inactive | inactive
5 | C[C@@H]1CN([C@H](C)CO)C(=O)c2cc(NC(=O)NC3CCCCC3)ccc2O[C@@H](C)CCCCO[C@H]1CN(C)S(=O)(=O)c1ccc(F)cc1 | inactive | inactive | inactive
6 | C[C@@H]1CCCCO[C@H](CN(C)Cc2ccc3c(c2)OCO3)[C@@H](C)CN([C@H](C)CO)C(=O)c2cc(NC(=O)Cc3ccccc3)ccc2O1 | inactive | inactive | inactive
7 | C[C@H]1CN([C@@H](C)CO)S(=O)(=O)c2ccc(Br)cc2O[C@H]1CN(C)C(=O)C1CCCCC1 | inactive | inactive | inactive
8 | CN1C(C(=O)Nc2ccccn2)=C(O)c2sc(Cl)cc2S1(=O)=O | inactive | inactive | inactive
9 | CCCOc1ccnc2c1c(=O)n(C)c(=O)n2C | inactive | inactive | inactive
10 | O=C(NCCN1CCCC1)[C@@H]1[C@@H](CO)[C@@H]2Cn3c(cccc3=O)[C@H]1N2C(=O)c1ccccc1 | inactive | inactive | inactive
11 | O=c1cc(CN2CCCC2)nc2n1CCCNC2 | inactive | inactive | inactive
12 | C[C@@H]1CN([C@@H](C)CO)C(=O)c2cc(NC(=O)CCC(F)(F)F)ccc2O[C@@H]1CN(C)Cc1ccc(Oc2ccccc2)cc1 | inactive | active | inactive
13 | C[C@@H]1CCCCO[C@H](CN(C)C(=O)Nc2ccc3c(c2)OCO3)[C@@H](C)CN([C@@H](C)CO)C(=O)c2cc(NC(=O)Cc3ccccc3)ccc2O1 | inactive | inactive | inactive
14 | O=C(NCCCl)N(CCCl)[N+][O-] | inactive | inactive | inactive
15 | C[C@H](CO)N1C[C@H](C)[C@H](CN(C)Cc2ccncc2)OCCCC[C@H](C)Oc2ccc(NS(C)(=O)=O)cc2C1=O | inactive | inactive | inactive
16 | C[C@@H]1CN([C@@H](C)CO)C(=O)c2cc(NC(=O)C3CCCCC3)ccc2O[C@@H](C)CCCCO[C@@H]1CN(C)Cc1ccc(C(=O)O)cc1 | inactive | inactive | inactive
17 | O=C(C[C@H]1CC[C@H]2[C@@H](COC[C@H](O)CN2C(=O)c2ccccn2)O1)NC1CCC1 | inactive | inactive | inactive
18 | O=C1OCCC=C[C@H]2O[C@@]34C=CCN(c5ccc6ccccc6c5)C(=O)[C@H]3N(CCCCCO)C(=O)[C@@H]4[C@@H]12 | inactive | inactive | inactive
19 | COc1ccc(NC(=O)O[C@H]2[C@H](OC(=O)Nc3ccccc3-c3ccccc3)[C@@H](OC(=O)Nc3ccccc3-c3ccccc3)[C@@H](OC)O[C@@H]2COC(=O)NCCCCCC(=O)NO)cc1 | inactive | inactive | inactive
20 | Cc1ccc(S(=O)(=O)Nc2ccc3c(c2)C(=O)N([C@H](C)CO)C[C@H](C)[C@H](CN(C)C(=O)Nc2ccc(C(F)(F)F)cc2)OCCCC[C@H](C)O3)cc1 | inactive | active | inactive
21 | C[C@@H]1CN([C@H](C)CO)C(=O)c2cccc(NC(=O)Nc3ccc(C(F)(F)F)cc3)c2O[C@@H]1CN(C)C(=O)Nc1cccc2ccccc12 | active | inactive | inactive
22 | CC(C)NC(=O)N(C)C[C@@H]1OCCCC[C@H](C)Oc2ccc(NC(=O)Nc3ccc(F)cc3)cc2C(=O)N([C@H](C)CO)C[C@@H]1C | inactive | inactive | inactive
23 | CC(C)NC(=O)Nc1ccc2c(c1)C(=O)N([C@H](C)CO)C[C@H](C)[C@@H](CN(C)Cc1ccc(C(F)(F)F)cc1)OCCCC[C@@H](C)O2 | inactive | inactive | inactive
24 | Cc1noc(C)c1NC(=O)N(C)C[C@@H]1Oc2c(NC(=O)C3CC3)cccc2C(=O)N([C@@H](C)CO)C[C@@H]1C | inactive | inactive | inactive
25 | C[C@@H]1CCCCO[C@H](CN(C)S(=O)(=O)c2cccs2)[C@@H](C)CN([C@@H](C)CO)C(=O)c2cc(NC(=O)C3CCCCC3)ccc2O1 | inactive | inactive | inactive
26 | CC(C)NC(=O)Nc1ccc2c(c1)C(=O)N([C@H](C)CO)C[C@H](C)[C@@H](CN(C)Cc1ccc(C(F)(F)F)cc1)OCCCC[C@H](C)O2 | inactive | inactive | inactive
27 | C[C@@H]1CN([C@@H](C)CO)C(=O)c2cc(NS(=O)(=O)c3ccc(F)cc3)ccc2O[C@@H](C)CCCCO[C@@H]1CN(C)C(=O)Nc1ccc(C(F)(F)F)cc1 | inactive | active | inactive
28 | Cc1ccc(-c2cnc3c(c2)C(=O)N([C@@H](C)CO)C[C@H](C)[C@H](CN(C)C(=O)Cc2cccnc2)O3)cc1 | inactive | inactive | inactive

Row | Structure (SMILES) | cytotoxicity call [1] | cytotoxicity call [2] | growth inhibition call [3]
29 | C[C@H]1CN([C@@H](C)CO)C(=O)Cc2cc(NC(=O)CCN3CCOCC3)ccc2O[C@@H]1CN(C)C(=O)Nc1ccccc1 | inactive | inactive | inactive
30 | C[C@@H]1CN([C@@H](C)CO)C(=O)Cc2cc(NC(=O)Nc3ccccc3)ccc2O[C@@H]1CN(C)Cc1ccc(Oc2ccccc2)cc1 | active | active | inactive
31 | COc1ccccc1NC(=O)N(C)C[C@H]1Oc2ncc(Br)cc2C(=O)N([C@H](C)CO)C[C@H]1C | inactive | inactive | inactive
32 | CCS(=O)(=O)Nc1ccc2c(c1)C(=O)N(C)[C@H]1CC[C@@H](CC(=O)N3CCN(C)CC3)O[C@H]1CO2 | inactive | inactive | inactive
33 | CO[C@H]1CN(C)C(=O)c2cc(NC(=O)CC(F)(F)F)ccc2OC[C@@H](C)N(S(=O)(=O)c2cn(C)cn2)C[C@@H]1C | inactive | inactive | inactive
34 | C[C@H]1CN([C@@H](C)CO)C(=O)Cc2cc(NC(=O)Nc3ccc(F)cc3)ccc2O[C@H]1CN(C)Cc1ccc(-c2ccccc2)cc1 | active | active | inactive
35 | O=C(C[C@H]1CC[C@H](NC(=O)c2cccnc2)[C@@H](CO)O1)NCCN1CCCCC1 | inactive | inactive | inactive
36 | C[C@@H]1CN([C@H](C)CO)C(=O)c2cccc(NC(=O)C3CCOCC3)c2O[C@@H]1CN(C)C(=O)Nc1ccccc1 | inactive | inactive | inactive
37 | C[C@@H]1CN([C@@H](C)CO)C(=O)c2cc(NC(=O)Cc3ccccc3)ccc2O[C@H]1CN(C)Cc1ccc(C(=O)Nc2ccccc2N)cc1 | inactive | inactive | inactive
38 | CCC[C@@H](O)C#Cc1cnc2c(c1)C(=O)N([C@H](C)CO)C[C@H](C)[C@H](CN(C)S(=O)(=O)c1cccc(OC)c1)O2 | inactive | inactive | inactive
39 | C[C@@H]1O[C@@H](O[C@H]2[C@H](Oc3cc(O)c(C(=O)CCc4ccc(O)cc4)c(O)c3)O[C@H](CO)[C@@H](O)[C@@H]2O)[C@H](O)[C@H](O)[C@H]1O | inactive | inactive | inactive
40 | S=C(Nc1ccccc1)Nc1ccc2c(c1)oc1ccccc12 | inactive | inactive | inactive
41 | C[C@@H]1CCCCO[C@@H](CN(C)S(=O)(=O)c2cccs2)[C@@H](C)CN([C@H](C)CO)C(=O)c2cc(NC(=O)Nc3cccc4ccccc34)ccc2O1 | inactive | inactive | inactive
42 | CNC[C@@H]1OCCCC[C@@H](C)Oc2ccc(NS(=O)(=O)c3c(C)noc3C)cc2C(=O)N([C@H](C)CO)C[C@H]1C | inactive | inactive | inactive
43 | COc1cccc(S(=O)(=O)Nc2ccc3c(c2)[C@H]2C[C@H](CC(=O)NC4CCCCC4)O[C@H](CO)[C@H]2O3)c1 | inactive | inactive | inactive
44 | CC1=CC2C(CC1=O)C2(C)C (stereo not given) | inactive | inactive | inactive
45 | CC(C)NC(=O)N[C@H]1C=C[C@@H](CC(=O)O)O[C@@H]1CO | inactive | inactive | inactive
46 | c1cn2c3c(n1)CCCc3c1cc(C3CCCCC3)ccc12 | inactive | inactive | inactive
47 | Cc1noc(C)c1S(=O)(=O)Nc1ccc2c(c1)C(=O)N([C@@H](C)CO)C[C@@H](C)[C@H](CN(C)S(=O)(=O)c1ccc(Cl)cc1)O2 | inactive | inactive | inactive
48 | COCCNc1cc(NC(=O)N2CCCc3cc(CN4CCN(C)CC4=O)c(C=O)nc32)ncc1C#N | inactive | inactive | inactive
49 | COc1ccc(CN(C)C[C@H]2OCCCC[C@@H](C)Oc3ccc(NC(=O)Nc4ccccc4)cc3C(=O)N([C@H](C)CO)C[C@@H]2C)cc1 | inactive | inactive | inactive
50 | C[C@@H]1CN([C@H](C)CO)C(=O)c2cccc(NC(=O)c3cnccn3)c2O[C@@H]1CN(C)S(=O)(=O)c1ccc(F)cc1 | inactive | inactive | inactive
51 | C[C@@H]1CCCCO[C@H](CN(C)Cc2ccncc2)[C@@H](C)CN([C@H](C)CO)C(=O)c2cc(NC(=O)NC3CCCCC3)ccc2O1 | inactive | inactive | inactive
52 | C[C@@H]1CN([C@H](C)CO)C(=O)Cc2cc(NC(=O)CCCN(C)C)ccc2O[C@H]1CN(C)Cc1ccc(Oc2ccccc2)cc1 | inactive | active | inactive
53 | CC(=O)N1[C@H](CO)[C@H](c2ccccc2)C12CN(C(=O)CN1CCOCC1)C2 | inactive | inactive | inactive
54 | COc1cccc(NC(=O)N(C)C[C@H]2OCc3ccccc3-c3c(n(C)c4ccccc34)C(=O)N([C@@H](C)CO)C[C@@H]2C)c1 | inactive | inactive | inactive
55 | COc1ccc(S(=O)(=O)Nc2ccc3c(c2)C(=O)N([C@H](C)CO)C[C@H](C)[C@@H](CN(C)C(=O)c2ccccc2)OCCCC[C@H](C)O3)cc1 | inactive | inactive | inactive
